Reference: PubChem BioAssay AID686979 (National Center for Advancing Translational Sciences (NCATS), 2013)
“And” between values parts separate entries of the source, which are not always exact repeats. Equal entries are not always repeated. Hit rate of the full screen: of about 420,000 compounds, about 50,000 (12%) were called active. The inconclusive results got no clear call from the source; some entries with a clear call stand among them for comparison. Calls come from the whole dose curve; as a rule, active = well fitted inhibition curve with a large enough effect; inconclusive = small, poorly fitted or top-dose-only effect; inactive = flat fitted curve, though single readings scatter. No potency is given beside an inconclusive call; the fits are too rough.

Assay: qHTS for Inhibitors of human tyrosyl-DNA phosphodiesterase 1 (TDP1): qHTS in cells in presence of CPT; note: nearly all actives have a fitted effect of over 55% in size
Conditions: chicken DT40 Tdp1-/-;hTDP1 cells + 20 nM CPT, ATP luminescence, 48 h; activity change, negative = growth inhibition: at 46.2 µM (top of the series)
In short: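 Chicken DT40 Tdp1-/- cells stably complemented with human TDP1 were seeded at 400 cells/well in medium containing 20 nM camptothecin, exposed to pin-transferred compounds, and grown at 37 °C for at least 48 hr. Viability was read as ATP luminescence.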
% is set by controls: 0 for no effect and ±100 for the full control effect; potency is the fitted concentration of half-maximal effect; tags give direction and shape of the fitted curve.

| SMILES | Potency | activity change, negative = growth inhibition |
| --- | --- | --- |
| COc1cc(OC)c(/C=C/c2ccc3ccccc3[n+]2[O-])c(OC)c1 | inconclusive [inhibitor, single point] |  |
| O=C(c1ccco1)N1CCN(CCOCCOc2cccc3ccccc23)CC1 | inconclusive [inhibitor, partial curve] |  |
| COc1ccc2c(c1)CC=C1C2CCC2(C)C(=O)C(=NO)CC12 (centres undefined) | inconclusive [inhibitor, single point] |  |
| Cc1cccc(NC(=O)CNC(=O)c2ccc(S(=O)(=O)NCc3ccco3)cc2)c1C |  | inactive: -9.53% |
| O=C(Nc1ccccc1N1CCCCC1)c1ccc2nccnc2c1 | active: 20.6 µM |  |
| Cc1nc(-c2ccc(S(=O)(=O)N(C)Cc3ccccc3)cc2)co1 | active: 25.9 µM |  |
| O=C(N/N=C/c1ccc(OCc2ccccc2)cc1)c1cccs1 |  | inactive: -0.813% |
| CC[C@]12c3[nH]c4cc(-c5ccco5)ccc4c3CCN1C(=O)[C@@H](CC(=O)NC(C)(C)C)C[C@@H]2C(=O)N1CCN(C(=O)c2ccco2)CC1 | active: 23.1 µM |  |
| COc1ccc(N(CC(=O)NCCc2ccccc2)C(=O)CCC(=O)Nc2nccs2)cc1 | inconclusive [inhibitor, partial curve] |  |
| O=C(O)c1cc(NS(=O)(=O)c2ccc3ccccc3c2)ccc1O |  | inactive: -4.56% |
| Cc1ccc(NC(=O)C2CCN(c3nc4ccccc4nc3C(F)(F)F)CC2)cc1C | inconclusive [inhibitor, partial curve, poor fit] |  |
| CCN(CC)C(=O)CSc1cn(CC(=O)N2CCCCCC2)c2ccccc12 | inconclusive [inhibitor, partial curve, poor fit] |  |
| O=C(CSCc1ccc(Cl)cc1)N1CCN(Cc2ccc3c(c2)OCO3)CC1 | inconclusive [inhibitor, single point] |  |
| O=C(NCCc1ccccc1)C1CCC(CNc2nc(=S)[nH]c3ccccc23)CC1 (centres undefined) | inconclusive [inhibitor, single point] |  |
| CCOC(=O)Cn1nc(C)c(NC(=O)COc2ccc(C)c(C)c2)c1C | inactive |  |
| Cn1c(CO)nc2c3ccccc3ccc21 |  | inactive: -3.88% |
| CCn1c2ccccc2c2nnc(N3CCN(c4ccc(OC)cc4)CC3)nc21 | inconclusive [inhibitor, partial curve] |  |
| CN(C)CCCN(C(=O)c1ccc(C(=O)c2ccccc2)cc1)c1nc2ccc(F)cc2s1 | inconclusive [inhibitor, single point] |  |
| Cc1cc(NC(=O)/C(C#N)=C\c2ccc(-c3ccc(SC(F)F)cc3)o2)n(-c2ccccc2)n1 | inconclusive [inhibitor, single point] |  |
| Cc1cccc(C)c1OCCN1CCOCC1 |  | inactive: 0.496% |
| COc1ccc(CNS(=O)(=O)c2ccc(-c3ccc(=O)[nH]n3)s2)cc1OC | inconclusive [inhibitor, single point] |  |
| COc1ccc(CCn2c(=N)c(S(=O)(=O)c3ccc(C)cc3)cc3c(=O)n4ccccc4nc32)cc1 |  | inactive: -9.69% |
| N#CCCSc1ccccc1NC(=O)c1cc(=O)c2ccccc2o1 | inconclusive [inhibitor, single point] |  |
| CCOc1ccc(-n2cc(-c3ccccc3)c3c(NCc4ccc(F)cc4)ncnc32)cc1 | active: 18.4 µM |  |
| COc1ccc(CCNC(=O)C2CCN(Cc3nc(-c4ccccc4C)oc3C)CC2)cc1OC | active: 23.1 µM |  |

| SMILES | Potency | activity change, negative = growth inhibition |
| --- | --- | --- |
| CCN(CC)CCNC(=O)c1ccc(NC(=O)c2ccc(S(=O)(=O)N3CCCCCC3)cc2)cc1 | inconclusive [inhibitor, single point] |  |
| Cc1ccc(-c2c(C)sc3ncn(CC(=O)N4CCOCC4)c(=O)c23)cc1C |  | inactive: -20.4% |
| COc1ccc(/C=C/c2nc(C#N)c(N3CCCCCC3)o2)cc1OC | active: 11.6 µM |  |
| COc1cc(NC(=O)CSc2nnc3c(n2)[nH]c2ccc(S(=O)(=O)NC(C)C)cc23)cc(OC)c1OC |  | inactive: 4.28% |
| Cc1ccc(C)c(NC(=O)CSc2ncc3c(n2)-c2ccccc2N(Cc2ccccc2C)S3(=O)=O)c1 |  | inactive: -25.8% |
| Cc1ccc(NS(=O)(=O)c2ccc(NC(=O)C3CC3)cc2)cc1C | active: 18.4 µM |  |
| Cc1ccc(NC(=O)c2cc3c(s2)CCC3)cc1S(=O)(=O)N1CCOCC1 | inconclusive [inhibitor, single point] |  |
| OC(CNc1ccnc2cc(Cl)ccc12)CNC1CCCCC1 (centres undefined) | active: 18.4 µM |  |
| COc1ccc(S(=O)(=O)N2CCCCCC2)cc1C(=O)NCc1ccccc1Cl | inconclusive [inhibitor, single point] |  |
| NC(=O)COC(=O)c1ccccc1OCc1ccccc1Cl | inconclusive [inhibitor, single point] |  |
| CCCCCCCC/C=C\CCCCCCCC(=O)O | inactive |  |
| Fc1ccc([C@@H]2Nc3ccccc3[C@@H]3C=CC[C@@H]32)cc1 | inconclusive [inhibitor, single point] |  |
| O=C(Nc1nnc(SCC(=O)N2CCCCC2)s1)c1ccc(F)cc1F |  | inactive: -17.4% |
| COc1ccc(C)cc1NS(=O)(=O)c1ccc(-c2cnc(C3CC3)o2)cc1 | active: 8.2 nM and active: 65.1 nM |  |
| COc1ccc(NC(=O)CSc2nnc(-c3ccccc3)n2Cc2ccco2)cc1OC | inconclusive [inhibitor, partial curve] |  |
| O=C1CC(c2cccs2)CC2=C1C(c1ccccc1)n1ncnc1N2 (centres undefined) |  | inconclusive: -5.68% [inhibitor] |
| CCc1ccc(NS(=O)(=O)c2ccc(OC)c3ncccc23)cc1 | inconclusive [inhibitor, single point] |  |
| O=C(NCCc1ccc(F)cc1)N[C@@H](Cc1ccccc1)C(=O)O |  | inactive: 3.16% |
| Cc1ccc(C)c(Nc2ncnc3c2cnn3-c2ccc(F)cc2)c1 | inconclusive [inhibitor, partial curve] |  |
| COc1ccc(N2C(=O)[C@@H]3C[C@H]2CN3Cc2cccn2-c2ccc(Cl)cn2)c(C)c1 |  | inactive: -0.806% [at 9.04 µM] |
| O=S(=O)(Nc1cccc(-c2ccc(N3CCOCC3)nn2)c1)c1cc(Cl)ccc1Cl |  | inactive: -3.98% |
| Cc1ccc(NC(=O)COc2coc(CN3CCc4ccccc4C3)cc2=O)c(C)c1 | inconclusive [inhibitor, single point] |  |
| Cn1c(=O)c2c(nc(NCc3cccnc3)n2Cc2ccccc2Cl)n(C)c1=O | inconclusive [inhibitor, single point] |  |
| O=C(Nc1ccccc1)c1cccc(S(=O)(=O)N2CCCCC2)c1 |  | inactive: -26.3% |
| CC(=O)Cn1c(CN2CCN(C(=O)c3ccco3)CC2)nc2c1c(=O)n(C)c(=O)n2C |  | inactive: -25.9% |

| SMILES | Potency | activity change, negative = growth inhibition |
| --- | --- | --- |
| CC(OCC(O)CN(C)Cc1nc2ccccc2c(=O)[nH]1)c1ccc(Cl)cc1 (centres undefined) | active: 18.4 µM |  |
| FCCCOc1ccc(CN2CCN(c3ccccc3F)CC2)cc1 |  | inactive: -0.876% |
| CCOc1cc(N2CCOCC2)c(OCC)cc1NC(=O)COC(=O)c1cccc2ccccc12 | inconclusive [inhibitor, partial curve, poor fit] |  |
| CSC1=C(C#N)C(c2ccc(C(C)C)cc2)CC(=O)N1 (centres undefined) |  | inactive: -27.4% |
| CCOC(=O)Nc1ccc2nc3n(c(=O)c2c1)CCCCC3 | inconclusive [inhibitor, partial curve] |  |
| COc1cc(OC)cc(C(=O)NCC(=O)N2CCN(c3ccc(O)cc3)CC2)c1 | inconclusive [inhibitor, partial curve] |  |
| CCc1cc(=O)oc2cc3occ(-c4ccc(OC)c(F)c4)c3cc12 | active: 4.61 µM |  |
| COc1cc(/C=C(/NC(C)=O)C(=O)O)cc(Cl)c1OCc1ccc(Br)cc1 |  | inactive: 16.3% |
| O=C(c1cc(-c2ccccc2Cl)nc2ccccc12)N1CCN(c2ccccc2O)CC1 | active: 18.4 µM |  |
| CCOc1cc(N2CCOCC2)c(OCC)cc1NC(=O)c1cccc(S(=O)(=O)N2CCOCC2)c1 |  | inactive: -24.7% |
| CSc1nnc(C)c(=O)n1COC(=O)c1ccccc1 |  | inactive: 10.3% |
| CCc1ccc(Nc2ncnc3sc4c(c23)CCCC4)cc1 | active: 20.6 µM |  |
| CC[n+]1c(C)sc2cc(C)ccc21 | active: 3.66 µM |  |
| CC(=O)Nc1ccc(SC[C@H](CC(C)C)N2CCN(CCc3ccccc3)CCC2=O)cc1 | inconclusive [inhibitor, single point] |  |
| O=C(NC1CCCCC1)C(c1ccc(F)cc1)N(Cc1ccco1)C(=O)CN1C(=O)c2ccccc2S1(=O)=O (centres undefined) | inconclusive [inhibitor, single point] |  |
| COc1ccc(CCN2C(=O)N(c3ccc(F)cc3)C(=O)C2CC(=O)Nc2ccccc2)cc1OC (centres undefined) | inconclusive [inhibitor, single point] |  |
| c1ccc(N/N=C2\CCCc3ccccc32)nc1 |  | inactive: -0.332% |
| COc1ccccc1C(=O)Nc1cc(C)ccc1NC(=O)c1ccco1 |  | inactive: -4.66% |
| Cc1nc([N+](=O)[O-])c(Sc2nc3ccccc3n2C)n1Cc1ccccc1 | inconclusive [inhibitor, partial curve, poor fit] |  |
| CCCCOc1ccc(C(=O)NO)cc1 | active: 10 µM |  |
| CCCc1c(C(=O)OCC)nnc2c(-c3ccccc3)c(C)nn12 |  | inconclusive: -30.5% [inhibitor] |
| Cc1ccc(/C=N/NC(=O)CSc2nnc(-c3ccccc3)n2-c2ccc(Cl)cc2)o1 | inconclusive [inhibitor, single point] |  |
| O=C(COC(=O)c1ccc(O)cc1)Nc1ccc(N2CCCCC2)cc1 | inconclusive [inhibitor, single point] |  |
| Cc1cc(S(=O)(=O)N2CCCc3ccccc32)ccc1-n1cnnn1 | inconclusive [inhibitor, single point] |  |
